# Read counts are not given, so values of variants with three or more changes are uncertain.
# B1: LINE1-mini (parent)
# chain: GGCAGAGCUCAACACAGCGUGGCAAAGUGGCUGUGGCUAGACUGCC
# Variants of: B1
# Assay: self-cleavage, relative activity (ratio to wild type); higher = more cleavage; in vitro, sequencing; the parent is a self-cleaving ribozyme
row,Variant,self-cleavage
1,GGCAGAGCUCAACACAGUGUGGCAAAGUGGCUGUGGAUAUACUGCC,0.18
2,GGCAGAGCUCAACACAGGGUGGCAAACUAGCUGUGACCAGCCUGCC,0.01
3,GGCAGAGCUCAACACAGUGUGUCAGAGUGGCUGUGGCUAGACUGCC,1.11
4,GGCAGAGCUCAACACAGUGUGGGAAAGUUGCAGUGGCUAGACUGCC,0.05
5,GGCAGAGCUCAACACAGUGUGGCAAUGUGGCUGGGGCUAGACUGCC,0.11
6,GGCAGAGCUCAACACAGUAUGGCAAAGUGGCUGAGGCUAGACUGCC,0.02
7,GGCAGAGCUCAACACAGGGUGGCAAAGUAUCAGUUGCUAGACUGCC,0.05
8,GGCAGAGCUCAACACAGGGUGGCAAAGUGUCUCUGGCUAGACCGCC,0.03
9,GGCAGAGCUCAACACAGGGUGGCAAAUUGGCAGUAGCUAGACUGCC,0.01
10,GGCAGAGCUCAACACAGUGUGGCGGACUGGCUGUGGCUAGACUGGC,0.07
11,GGCAGAGCUCAACACAGUAUUGCAAAGCGGCUGUGGCUAGACUGCC,0.85
12,GGCAGAGCUCAACACAGUUUGGCAAAGUGGCUGUGGCUAAACUGCC,0.1
13,GGCAGAGCUCAACACAGGGUGGCAAAGUGGCUGUUGCUAGUUUGCC,0.04
14,GGCAGAGCUCAACACAGGGUGGCAAACUGUCUGUGGCUAGACUGCC,1.19
15,GGCAGAGCUCAACACAGGGCGGUAAAGUGGCUGUGGGUAGACUGCC,0.06
16,GGCAGAGCUCAACACAGUUUGGAAAAGUGGCUGUGGUUAGGCUGCC,0.02
17,GGCAGAGCUCAACACAGUGUGGCACAGUUGCUGUGGCUAGACUGCC,0.29
18,GGCAGAGCUCAACACAGUGUGGCAAAGUGGCUGUGGAAAGUCUGCC,0.02
19,GGCAGAGCUCAACACAGGGCGGCAAAGUGGUUGUAGCUAGACUGAC,0.02

row,Variant,self-cleavage
1,GGCAGAGCUCAACACAGUGUGGCAAGGUAGCAGUGGCUAGACUGCC,0.09
2,GGCAGAGCUCAACACAGUAUGGCAGAAUGGCUGUGGCUAGAGUGCC,0.02
3,GGCAGAGCUCAACACAGUGUGGCAAAGUGGCUGUGGCUUGACUGAC,0.05
4,GGCAGAGCUCAACACAGGGUGGCAAAGUAGGUGUGACUAGACUGCC,0.01
5,GGCAGAGCUCAACACAGGGUGGCAAAGUGGCUGUGGCAACACUGCC,0.05
6,GGCAGAGCUCAACACAGGGUGGCAAAGUGGCAGUGGCUUGACUGCC,0.01
7,GGCAGAGCUCAACACAGUGUGGCGUAAUGGCUGUGGCUAGACUGCG,0.23
8,GGCAGAGCUCAACACAGUGUGGCAUAGUGGCUGUGGCUAGACAGCC,0.02
9,GGCAGAGCUCAACACAGUGUCGCAAAGUGGCAGUGGCUCGACUGCC,0.09
10,GGCAGAGCUCAACACAGUUUGAUGAAGUGGCUGUGGCUAGACUUCC,0.03
11,GGCAGAGCUCAACACAGGGUGGCAAAGUGGCUGUGACUAGACAGAC,0.02
12,GGCAGAGCUCAACACAGUGUGGAAAGGUGAACGUGAUUAGACUGCC,0.05
13,GGCAGAGCUCAACACAGUCUGGCAAAGUGGAUGUGGCUAGACUGCC,0.21
14,GGCAGAGCUCAACACAGUGUGCCAAAGUGGCUGUGACUAGACUGCC,0.08
15,GGCAGAGCUCAACACAGGGUGGCAAAGUGACUGAGGCUAGAUCGCC,0.08
16,GGCAGAGCUCAACACAGUGUGGCAAAGUGGAUGUGGUUAGACUUCC,0.01
17,GGCAGAGCUCAACACAGUGUGGCACAGUGGCUGUGGCUACACUGCC,0.04
18,GGCAGAGCUCAACACAGGGGGGCAAAGUGACUGUGGCUAGACUGCC,0.21
19,GGCAGAGCUCAACACAGUGUGGCAAAGUGGAUGUGGCUAGAUUGCC,0.02

row,Variant,self-cleavage
1,GGCAGAGCUCAACACAGUUUGGCCAAGUGGCUGUGGCUAGACUGCC,0.08
2,GGCAGAGCUCAACACAGGGUGGCAAAGUAAGUGUGGCUAGACUGCC,0.27
3,GGCAGAGCUCAACACAGUGUGGUAAAGUGGCUGUGGCUAAUCUGCC,0.02
4,GGCAGAGCUCAACACAGGGUGGCAAAUUGGCUGUGGCUAUACUGUU,0.06
5,GGCAGAGCUCAACACAGUCUGGCAAAGUGGCUGUUGAUACACUGCC,0.05
6,GGCAGAGCUCAACACAGUUUGGCAAAGCGGCUGUGGCUAGACUGCC,0.98
7,GGCAGAGCUCAACACAGUUUGGCAAAGUGGCUGUGGCUAGACUGGC,0.05
8,GGCAGAGCUCAACACAGUGUGGUAAAGUUGCCGUGGCUAGACUGCC,1.12
9,GGCAGAGCUCAACACAGGGUGGCAAACUGGCUGUGGCAAGACUUCC,0.07
10,GGCAGAGCUCAACACAGUGUGGCCAAGUGUCUGUGGCCAGACUGCG,0.01
11,GGCAGAGCUCAACACAGGGUGGCAAACUUGCUGUGGCUAGACUGCC,1.21
12,GGCAGAGCUCAACACAGUCUGGCUAAGUGGCCGUGGCUAGACUGCC,0.11
13,GGCAGAGCUCAACACAGUGUCGCAAAGUGGUUGUGGCUAGACUGCC,0.05
14,GGCAGAGCUCAACACAGUGUGGAAAAAUGGCUUUGGCUAGACUGCC,0.37
15,GGCAGAGCUCAACACAGUGUGGCAAAGUGGUUCUGGCUAGAAUGCC,0.08
16,GGCAGAGCUCAACACAGUGUUGCAAAGUGGCUGUGGUUAGACUGAC,0.01
17,GGCAGAGCUCAACACAGUCUGGCAAAGUGGCUGUGGCUAGAGUGCC,0.08
18,GGCAGAGCUCAACACAGGGUGGCAAAUUGGCUGUGGCUGGACUGCC,0.14

# From the RNAGym collection of RNA variant scans (doi:10.7554/elife.90254)
